# Measured values taken from PubChem BioAssay AID485344 (National Center for Advancing Translational Sciences (NCATS), 2010).
# About 6,900 (2%) of roughly 340,000 compounds were called active. No stated cut-off is given here; in the data, active means inhibition above about 30%; inactive means below that, where a call was filed. The entries are a selection whose mix differs from that of the whole data set. Entries without a call were filed so in the source.
# Target: D(2) dopamine receptor (Homo sapiens) (UniProt P14416)
# UniProt P14416, sequence (P14416 whole entry, looked up): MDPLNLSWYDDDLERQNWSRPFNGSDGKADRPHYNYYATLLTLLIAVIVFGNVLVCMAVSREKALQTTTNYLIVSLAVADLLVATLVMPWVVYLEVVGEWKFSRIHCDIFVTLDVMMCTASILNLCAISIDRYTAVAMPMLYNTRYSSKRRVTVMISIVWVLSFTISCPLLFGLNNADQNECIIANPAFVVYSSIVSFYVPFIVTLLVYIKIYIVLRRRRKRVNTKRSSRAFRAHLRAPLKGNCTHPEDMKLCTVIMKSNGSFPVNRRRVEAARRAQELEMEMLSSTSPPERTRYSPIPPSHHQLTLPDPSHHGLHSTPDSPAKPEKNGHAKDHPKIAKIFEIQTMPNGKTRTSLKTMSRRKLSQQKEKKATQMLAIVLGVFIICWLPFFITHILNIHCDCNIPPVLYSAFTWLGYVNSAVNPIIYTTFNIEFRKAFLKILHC
# Assay: HTS Assay for Allosteric Antagonists of the Human D2 Dopamine Receptor: Primary Screen for Antagonists; further: 0% is about no effect
# Settings: HEK293 TREx D2 cells, calcium flux, dopamine EC80; at 10 µM; stronger effect = higher value
# Method in brief: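 Antagonism is scored as inhibition of an EC80 dopamine-evoked calcium signal in a force-coupled, tetracycline-inducible HEK293 T-REx D2 line, with compound present 180 s before agonist.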
row,Structure (SMILES),inhibition
1,CCCOc1ccc(CNC(=O)Cn2c(=O)oc3ccccc32)cc1,-12.6%
2,COc1cc(Cl)c(NC(=O)CN(C)S(=O)(=O)c2ccc3[nH]c4c(c3c2)CCCC4)c(OC)c1,-13.5%
3,COc1cccc(CNC(=O)c2cccc(NC(=O)c3nsc4ccccc34)c2)c1,5.61%
4,COc1cccc(CNC(=O)CC(c2ccc(C)cc2)N2Cc3ccccc3C2=O)c1 (stereo unspecified),2.01%
5,CCCOc1ccc(C2C(=O)N(C3CCCCC3)CC(=O)N2CCC2=CCCCC2)cc1OC (stereo unspecified),0.494%
6,Cc1ccc(CNC(=O)c2cnn(-c3ccc(F)cc3F)c2C2CCN(C(=O)OC(C)(C)C)CC2)cc1,-7.82%
7,COc1ccc(NS(=O)(=O)c2ccc3c(c2)n(C)c(=O)c(=O)n3C)cc1Cl,-7.29%
8,COc1ccc(N(CC(=O)N2CCN(c3ccc(F)cc3)CC2)S(=O)(=O)c2c(C)nn(C)c2C)cc1,9.64%
9,CC(=O)c1c(C)oc2ccc(N(C(=O)c3ccncc3)S(=O)(=O)c3ccc(F)cc3C)cc12,-17%
10,Cc1cccc(C(=O)Nc2sc3c(c2C(=O)O)CCCC3)c1,-2.96%
11,OC(COc1ccc(F)cc1Cl)CN1CCc2ccccc2C1 (stereo unspecified),active: 68.3%
12,Cc1cc(C)cc(NC(=O)CN(C)S(=O)(=O)c2ccc3c(c2)CCC(=O)N3)c1,15.9%
13,COc1ccc(C)cc1NC(=O)CSc1nc2ccccc2nc1N1CC(C)OC(C)C1 (stereo unspecified),active: 38.1%
14,CCOc1ccccc1NC(=O)c1nn(-c2ccc(OC)cc2)c(=O)c2c1c1ccccc1n2C,1.48%
15,O=C(c1cccc([N+](=O)[O-])c1)N1CCN(CCc2ccncc2)CC1,4.21%
16,COc1cccc(-n2cc(C(=O)Nc3ccccc3C(N)=O)c3ccccc3c2=O)c1,-7.58%
17,O=C(O)c1cc2c(cc1NC(=O)C1CCCC1)OCCO2,active: 33.5%
18,Cc1ccc(NC(=O)CN2C(=O)COc3ccc(S(=O)(=O)N4CCOCC4)cc32)c(Cl)c1,-1.55%
19,CCOc1ccc(NC(=O)Cn2c(=O)n(Cc3ccccc3)c(=O)c3c4c(sc32)CN(C(C)=O)CC4)cc1,21.3%
20,CC(C)(C)c1ccc(S(=O)(=O)N2CCC(c3ccncc3)CC2)cc1,-23.3%
21,COc1ccccc1NC(=O)C1=C(C)Nc2ncnn2C1c1sccc1C (stereo unspecified),6.65%

row,Structure (SMILES),inhibition
1,Cc1ccccc1CNC(=O)Cn1cc2c(n1)-c1c(oc(C(=O)N3CCCC3)c1C)CC2,3.73%
2,COc1ccc2nc(NC(=O)c3nc(SCc4cccc(C)c4)ncc3Cl)sc2c1,-25.6%
3,COc1ccc(OC)c(CNC(=O)CCC(=O)N2Cc3ccccc3Oc3ncccc32)c1,-0.58%
4,CNc1nc(Oc2ccc(=O)[nH]n2)nc(N2CCOCC2)n1,-2.5%
5,COc1ccc(-n2cc(C(=O)Nc3ccccc3C#N)c3ccccc3c2=O)cc1,2.13%
6,CC(=O)Nc1c(C(=O)Nc2ccccc2F)oc2ccccc12,11.5%
7,CCc1ccc(Nc2nc3c(S(=O)(=O)c4cccc(Cl)c4)nnn3c3ccsc23)cc1,2.28%
8,CC1CCCCN1S(=O)(=O)c1ccc2[nH]c(=O)cc(C(=O)NCCc3ccc(Cl)cc3)c2c1 (stereo unspecified),4.21%
9,COC(=O)c1c(NC(=O)c2c(OC)cccc2OC)sc2c1CCCC2,-3.67%
10,CCN1CCc2nc(SCC(=O)Nc3ccc(OC)cc3)c(C#N)cc2C1,active: 35.7%
11,C=Cc1ccc(Cn2c(C(=O)OC)cc3sc(C)cc32)cc1,-10.1%
12,COc1cccc(NC(=O)CC2Oc3ccccc3NC2=O)c1 (stereo unspecified),3.92%
13,CC(=O)c1cccc(Nc2ncnc3c2cnn3-c2cccc(Cl)c2)c1,12.5%
14,COc1cccc(NC(=O)c2oc3ccc(S(=O)(=O)N4CCOCC4)cc3c2C)c1,-0.213%
15,CC(C)OCCCNC(=O)CN1C(=O)CSc2ccc(S(=O)(=O)N3CCOCC3)cc21,17.1%
16,O=S(=O)(Nc1ccc(-c2ccc(N3CCCCCC3)nn2)cc1)c1ccc(C(F)(F)F)cc1,1.19%
17,O=C(NCCSc1c(-c2ccc(Cl)cc2)[nH]c2ccccc12)c1ccc(S(=O)(=O)N2CCOCC2)cc1,3.07%
18,COc1ccc(Nc2ncnc3c2cnn3C)c(OC)c1,1.41%
19,Cc1nn(-c2ccccc2)c2c1cc1c(=O)[nH]c(=O)nc-1n2-c1cccc(C(F)(F)F)c1,27.2%
20,Cc1cc(C)c(S(=O)(=O)NCC(c2ccco2)N2CCN(c3ccccc3)CC2)c(C)c1 (stereo unspecified),2.84%
21,Cc1ccc(-n2nc3c(=O)n(CCCC(=O)NCc4ccc(F)cc4)nc(C)c3c2C)cc1,13.9%

row,Structure (SMILES),inhibition
1,Cc1cc(C(F)(F)F)c2c(N)c(C(=O)Nc3c(Cl)cccc3Cl)sc2n1,11.9%
2,Cc1ccc2c(c1)-c1onc(C(=O)N3CCN(c4cccc(C)c4C)CC3)c1CO2,1.41%
3,O=C(CN1CCN(Cc2ccc(F)cc2)C1=O)NCc1ccccc1,1.49%
4,CCCCN(CCCC)C(=O)c1cc2c(=O)n3ccccc3nc2s1,11.9%
5,Cc1ccc(Cl)cc1N1CCN(C(=O)C(C)n2ncn3cccc3c2=O)CC1 (stereo unspecified),8.43%
6,CCNC(=O)c1c(NC(=O)c2cc(=O)c3ccc(C)c(C)c3o2)sc2c1CCCC2,3.83%
7,Cc1cccc(N2CCN(S(=O)(=O)c3ccc(F)c(C(=O)Nc4cccc(Cl)c4C)c3)CC2C)c1 (stereo unspecified),-13.7%
8,COc1ccccc1NC(=O)Nc1ccc(-n2ccc(C(F)(F)F)n2)cc1,active: 70.8%
9,CCN1CCN(C(=O)Cn2ncc3c4ccccc4n(Cc4ccccc4F)c3c2=O)CC1,-5.52%
10,O=C(CC(c1cccs1)N1Cc2ccccc2C1=O)Nc1ccccc1 (stereo unspecified),0.464%
11,O=C(c1cccc2ccccc12)N1CCC(N2CCN(c3ccccc3)CC2)CC1,active: 74.9%
12,O=c1cc2nc(-c3ccccc3)nc(SCc3cccc(Br)c3)n2[nH]1,8.41%
13,COc1cccc(N2CCN(C(=O)c3cnc4c(C)cccn4c3=O)CC2)c1,-11.6%
14,Cc1cccc(N2CCN(C(c3ccc(F)cc3)c3nnc(-c4ccccc4)o3)CC2)c1C (stereo unspecified),8.03%
15,COc1ccc(N2CCN(C(CNC(=O)C(=O)NCc3ccc(C)cc3)c3cccnc3)CC2)cc1 (stereo unspecified),4.54%
16,Cc1ccccc1-c1nc(NC(=O)CSc2ncnc3sc4c(c23)CCCC4)ns1,4.44%
17,CC(C)Oc1ccc(CNC(=O)C2CCN(C(=O)N3CCOc4ccc(Cl)cc43)CC2)cc1,-2.04%
18,Cc1cccc(NC(=O)CSc2nc3ccccc3c3nc(CCn4cncc4C)nn23)c1,-0.289%
19,COc1ccccc1NC(=O)c1sc2cccc(Cl)c2c1Cl,-4.43%
